# From the supplement of paper PMC4604168 (melanoma cell lines)
# The other results are listed elsewhere or left out. Single values are uncertain, as repeats are few or missing.
# Experiments:
# Test in all cases: cell count relative to DMSO control; melanoma cells; higher = more viable cells
# Details in all cases: library dose: standard library concentration; 72 h
# [1] = test system: 501Mel
# [2] = test system: A101D
# [3] = test system: A2058
# [4] = test system: A375
# 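Further: cells treated in 1,536-well plates, then fixed and DAPI-stained, with nuclei counted from automated high-throughput microscope images.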
SMILES,cell count [1],cell count [2],cell count [3],cell count [4]
"Cn1c(=O)n(-c2ccc(C(C)(C)C#N)cc2)c2c3cc(-c4cnc5ccccc5c4)ccc3ncc21 + COc1cc2ncnc(Nc3ccc(Oc4ccccc4)cc3)c2cc1OC [SrcI1] (first compound 0.02 µM, partner dose 10 µM)",45.6%,64.7%,45.3%,93.2%
"CC(C)C[C@H](NC(=O)[C@H](Cc1ccccc1)NC(=O)c1cnccn1)B(O)O [Bortezomib] + O=C(O)C(=O)Nc1sc2c(c1C(=O)O)CCNC2 [TCS401] (first compound 0.005 µM, partner dose 8.33333 µM)",28%,8.26%,22.3%,133%
"Cc1cc(Nc2cc(N3CCN(C)CC3)nc(/C=C/c3ccccc3)n2)n[nH]1 + CC(C)CCN1c2nc(Nc3cc(F)c(O)c(F)c3)ncc2N(C)C(=O)C1C [BID1870] (first compound 0.2 µM, partner dose 1 µM)",69.8%,47.8%,77%,85.3%
"Cn1c(=O)n(-c2ccc(C(C)(C)C#N)cc2)c2c3cc(-c4cnc5ccccc5c4)ccc3ncc21 + Oc1nc(-c2ccc(C(F)(F)F)cc2)nc2c1CSCC2 [XAV939] (first compound 0.02 µM, partner dose 10 µM)",68.5%,65.7%,62.6%,88.6%
"Cc1cn(-c2cc(NC(=O)c3ccc(C)c(Nc4nccc(-c5cccnc5)n4)c3)cc(C(F)(F)F)c2)cn1 [nilotinib] + c1cc(-c2cnn3cc(-c4ccc(OCCN5CCCCC5)cc4)cnc23)ccn1 [Dorsomorphin] (first compound 1 µM, partner dose 2 µM)",62.5%,78.4%,87.8%,98.6%
"COc1ccc(C2=N[C@@H](c3ccc(Cl)cc3)[C@@H](c3ccc(Cl)cc3)N2C(=O)N2CCNC(=O)C2)c(OC(C)C)c1 [Nutlin-3] + CCc1ccc(CCOc2ccc(CC3SC(=O)NC3=O)cc2)nc1 [pioglitazone] (first compound 0.5 µM, partner dose 10 µM)",94.3%,68.7%,96.1%,83.4%
"Cc1cn(-c2cc(NC(=O)c3ccc(C)c(Nc4nccc(-c5cccnc5)n4)c3)cc(C(F)(F)F)c2)cn1 [nilotinib] + O=C1NC(=O)/C(=C/c2ccc(-c3ccc(F)cc3O)o2)S1 [AS252424] (first compound 1 µM, partner dose 5 µM)",115%,116%,89.5%,133%
"COc1ccc(C2=N[C@@H](c3ccc(Cl)cc3)[C@@H](c3ccc(Cl)cc3)N2C(=O)N2CCNC(=O)C2)c(OC(C)C)c1 [Nutlin-3] + c1cc(-c2cnn3cc(-c4ccc(OCCN5CCCCC5)cc4)cnc23)ccn1 [Dorsomorphin] (first compound 0.5 µM, partner dose 2 µM)",55.7%,65.6%,81.5%,54.2%
"COc1ccc(C2=N[C@@H](c3ccc(Cl)cc3)[C@@H](c3ccc(Cl)cc3)N2C(=O)N2CCNC(=O)C2)c(OC(C)C)c1 [Nutlin-3] + CCN(CC)CCCCNc1ncc2cc(-c3cc(OC)cc(OC)c3)c(NC(=O)NC(C)(C)C)nc2n1 [PD173074] (first compound 0.5 µM, partner dose 0.5 µM)",66.1%,58.2%,84.3%,95%
"Cc1cc(Nc2cc(N3CCN(C)CC3)nc(/C=C/c3ccccc3)n2)n[nH]1 + c1cc(-c2cnn3cc(-c4ccc(OCCN5CCCCC5)cc4)cnc23)ccn1 [Dorsomorphin] (first compound 0.2 µM, partner dose 2 µM)",41%,68.3%,45.1%,73.9%
"Cc1cc(Nc2cc(N3CCN(C)CC3)nc(/C=C/c3ccccc3)n2)n[nH]1 + O=S(=O)(c1ccccc1)N(CC(F)(F)F)c1ccc(C(O)(C(F)(F)F)C(F)(F)F)cc1 [T0901317] (first compound 0.2 µM, partner dose 7 µM)",67.5%,85.7%,82.7%,80.4%
"Cc1cn(-c2cc(NC(=O)c3ccc(C)c(Nc4nccc(-c5cccnc5)n4)c3)cc(C(F)(F)F)c2)cn1 [nilotinib] + CCCCCCCCCCCC1=C(O)C(=O)C=C(O)C1=O [Embelin] (first compound 1 µM, partner dose 6 µM)",74.8%,75.8%,91%,109%
"CC(C)C[C@H](NC(=O)[C@H](Cc1ccccc1)NC(=O)c1cnccn1)B(O)O [Bortezomib] + COC(=O)c1sccc1S(=O)(=O)Nc1ccc(Nc2ccccc2)cc1OC [GSK0660] (first compound 0.005 µM, partner dose 5 µM)",5.28%,13.6%,8.03%,82.9%
"Cc1cn(-c2cc(NC(=O)c3ccc(C)c(Nc4nccc(-c5cccnc5)n4)c3)cc(C(F)(F)F)c2)cn1 [nilotinib] + Oc1cc(-c2nc(-c3ccccc3)[nH]c2-c2ccncc2)ccc1Cl [L779450] (first compound 1 µM, partner dose 1 µM)",77.3%,67.9%,82.7%,116%
"CC(C)C[C@H](NC(=O)[C@H](Cc1ccccc1)NC(=O)c1cnccn1)B(O)O [Bortezomib] + O=c1cc(-c2cccc3c2Sc2ccccc2S3)oc(N2CCOCC2)c1 [KU55933] (first compound 0.005 µM, partner dose 5 µM)",10%,9.91%,9.86%,98.5%
"COc1ccc(C2=N[C@@H](c3ccc(Cl)cc3)[C@@H](c3ccc(Cl)cc3)N2C(=O)N2CCNC(=O)C2)c(OC(C)C)c1 [Nutlin-3] + N#Cc1c(O)c2c(-c3ccc(-c4ccccc4O)cc3)csc2[nH]c1=O [A769662] (first compound 0.5 µM, partner dose 10 µM)",97.5%,83.4%,98.5%,96.6%
"COc1ccc(C2=N[C@@H](c3ccc(Cl)cc3)[C@@H](c3ccc(Cl)cc3)N2C(=O)N2CCNC(=O)C2)c(OC(C)C)c1 [Nutlin-3] + COc1cc2ncnc(Nc3ccc(Oc4ccccc4)cc3)c2cc1OC [SrcI1] (first compound 0.5 µM, partner dose 10 µM)",72.3%,63.9%,83.7%,148%
"COc1ccc(C2=N[C@@H](c3ccc(Cl)cc3)[C@@H](c3ccc(Cl)cc3)N2C(=O)N2CCNC(=O)C2)c(OC(C)C)c1 [Nutlin-3] + COc1ccc(-c2ccc3c(N4CCOCC4)nc(N4C[C@@H](C)O[C@@H](C)C4)nc3n2)cc1CO [KU0063794] (first compound 0.5 µM, partner dose 0.1 µM)",76.4%,66.3%,85.7%,77.5%
"Cn1c(=O)n(-c2ccc(C(C)(C)C#N)cc2)c2c3cc(-c4cnc5ccccc5c4)ccc3ncc21 + Oc1cc(-c2nc(-c3ccccc3)[nH]c2-c2ccncc2)ccc1Cl [L779450] (first compound 0.02 µM, partner dose 1 µM)",52.6%,61.7%,41.3%,64.2%
"Cc1cc(Nc2cc(N3CCN(C)CC3)nc(/C=C/c3ccccc3)n2)n[nH]1 + CCc1ccc(CCOc2ccc(CC3SC(=O)NC3=O)cc2)nc1 [pioglitazone] (first compound 0.2 µM, partner dose 10 µM)",71.2%,79.1%,81%,101%
"CC(C)C[C@H](NC(=O)[C@H](Cc1ccccc1)NC(=O)c1cnccn1)B(O)O [Bortezomib] + COc1ccc2c(c1)CCC1C2CCC2(C)C(NCCCCCCN3C(=O)C=CC3=O)CCC12 [U73122] (first compound 0.005 µM, partner dose 2 µM)",25.3%,7.2%,8.11%,83.6%
"COc1ccc(C2=N[C@@H](c3ccc(Cl)cc3)[C@@H](c3ccc(Cl)cc3)N2C(=O)N2CCNC(=O)C2)c(OC(C)C)c1 [Nutlin-3] + CC(C)CCN1c2nc(Nc3cc(F)c(O)c(F)c3)ncc2N(C)C(=O)C1C [BID1870] (first compound 0.5 µM, partner dose 1 µM)",76%,61.6%,99.5%,76.6%
"CC(C)C[C@H](NC(=O)[C@H](Cc1ccccc1)NC(=O)c1cnccn1)B(O)O [Bortezomib] + O=C1NC(=O)/C(=C/c2ccc(-c3ccc(F)cc3O)o2)S1 [AS252424] (first compound 0.005 µM, partner dose 5 µM)",3.89%,10.9%,14.5%,103%
"Cc1cc(Nc2cc(N3CCN(C)CC3)nc(/C=C/c3ccccc3)n2)n[nH]1 + COc1ccc(COc2ccc(Cc3cnc(N)nc3N)cc2OC)cc1 [GW2580] (first compound 0.2 µM, partner dose 5 µM)",57.3%,76.5%,93.2%,79.8%
"Cc1cc(Nc2cc(N3CCN(C)CC3)nc(/C=C/c3ccccc3)n2)n[nH]1 + Cn1cc(/C=C2\C(=O)Nc3cccnc32)c2ccccc21 [GW441756] (first compound 0.2 µM, partner dose 2 µM)",74.3%,80.7%,88.2%,114%
"COc1ccc(C2=N[C@@H](c3ccc(Cl)cc3)[C@@H](c3ccc(Cl)cc3)N2C(=O)N2CCNC(=O)C2)c(OC(C)C)c1 [Nutlin-3] + Oc1nc(-c2ccc(C(F)(F)F)cc2)nc2c1CSCC2 [XAV939] (first compound 0.5 µM, partner dose 10 µM)",93.1%,75.9%,74.6%,76.9%
"CC(C)C[C@H](NC(=O)[C@H](Cc1ccccc1)NC(=O)c1cnccn1)B(O)O [Bortezomib] + COc1ccc(COc2ccc(Cc3cnc(N)nc3N)cc2OC)cc1 [GW2580] (first compound 0.005 µM, partner dose 5 µM)",6.75%,13.6%,14.2%,84.7%
